Values marked as one replicate rest on one cluster of the flow cell; about a third of the high ones do not repeat.
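Further: ATP exposure 15 min at 22 °C before imaging.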

This data set relates to ATP. Kind of data set: switch fluorescence ratio, 500 uM ATP over buffer (Cy3 cluster intensity, sum of 5 cycles each) (fold (ratio)); higher = stronger signal-on switching upon ATP binding; sequences stand for … in TCGTCGGCAGCGTCAGATGTGTATAAGAGACAGTTTTTTTTTTTTTTTTTTTTTTTTT…TC. The conditions noted are these: aptamer strand: ATP DNA aptamer (quencher-CACCTGGGGGAGTATTGCGGAGGAAGG + anchor), 100 nM annealed; ATP concentration: 500 uM; one replicate. The method in brief: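 Values give the fluorescence ratio for each switch-domain sequence, averaged from per-cluster ratios of summed target-cycle to summed buffer-cycle Cy3 intensity. The Cy3-labelled switching-strand clusters sat on a modified Illumina MiSeq flow-cell, were annealed to 100 nM quencher-labelled ATP aptamer, and were imaged in selection buffer, then after 15 min with 500 uM ATP at 22 °C. Five cycles ran with NaOH stripping and re-annealing between them, and clusters outside 100-1000 RFU were excluded.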
Turning to TGACGAAGTG, the switch fluorescence ratio amounted to 1.

As for AACTCGCCAA, the switch fluorescence ratio turned out to be 1.09.

For TGTTTACCG, the switch fluorescence ratio is 0.99. Then ACAGGCTCAG, with 1.02. Turning to GATTACCGA, the switch fluorescence ratio was 1.03. For GTGAGCTGCG, the switch fluorescence ratio was 0.893. For ACGGATCCAT the value was 0.991; for GATTACCTAG, 1.05; for TCGTACTTCC, 1.94. For GTGGCCATTG the value was 0.963; for ACATTGAGTC, 1.07.

Regarding ATAGTCTGCG, the switch fluorescence ratio amounted to 1.02.

As to CTTCAAAGA, the switch fluorescence ratio was 1.01. For GCGCTATAAA the value was 0.996. Then CGTTGCACGG, with 1.04; and TGTGTAGGTC, with 1.04. CCCACTAATT: the switch fluorescence ratio amounted to 1.02. Then ATGTTAGTAA, with 0.996; and TGGCAGGGTT, with 0.999; and CCCTTGAGCG, with 1.05. For GACAATCACT, the switch fluorescence ratio was 1.14. For AATAGGGAAT, the switch fluorescence ratio was found to be 0.981. For AATCGTTACC, the switch fluorescence ratio came to 1.08. For CCCGTAGGCC the value was 0.968; for CCCCAGATA, 1.1.

With TCTATTCTTA, the switch fluorescence ratio came out at 0.963. Then TCACTCAAAT, with 1.03. Take CAATTTCACA: the switch fluorescence ratio was determined as 1.04.

With AAGGCCGAGT, the switch fluorescence ratio was 0.979. For ATTATGCGTC the value was 0.997; for AACTTCTGAC, 1.44. Then ACTGGTCTTA, with 1.03; and AACGCCGTT, with 0.97. CGCGTCGAAA: the switch fluorescence ratio came to 0.971. For the sequence TCAAGGTGAC, the switch fluorescence ratio came out at 1.1. For ACGCGCGGCG the value was 0.982; for CCTAATAAGG, 1.05; for TTTTATCCAC, 1.06.

As for GGTGCGTCGT, the switch fluorescence ratio turned out to be 0.945. Then AAATAAAC, with 0.998; and AGCGATGGCT, with 1.06; and ATGACCTTAC, with 3.36. Then TACATAAACT, with 1.02; and CAATCACCTT, with 1.16; and TACGGGCAGT, with 1.04. For TCCCGAAAAA the value was 0.976. With CCGTCAGACT, the switch fluorescence ratio was determined as 2.2. For CATACCTCAA the value was 1.15; for GCGGCTCTGG, 0.985. Regarding ATGTAAGTAA, the switch fluorescence ratio is 1.

On to CTGAAAAGTG, for which the switch fluorescence ratio came out at 0.976. CAGAAACGTA: the switch fluorescence ratio came to 1.02. As for ACCTTATAAC, the switch fluorescence ratio is 1.02. On to CTTTGTTTGT, for which the switch fluorescence ratio amounted to 1.02. On to GGGCTTAGGT, for which the switch fluorescence ratio amounted to 1.01. For TTTCTAAAAG the value was 1; for TTTTTGCA, 1. Then AGTAAGTTT, with 1.07. For GTGTGCTAGG the value was 0.97; for AGGTATACTG, 0.981; for TGCATGAAAT, 0.997. For CTTGGTGGTC, the switch fluorescence ratio is 1. With AGCGCCATTC, the switch fluorescence ratio was determined as 1.19. On to ATGCTAGCGA, for which the switch fluorescence ratio stood at 1.02. Then GATCTATGCT, with 0.992; and CATATTCCCC, with 0.992; and CGGCCCTACC, with 1.1. For the sequence GAGTATAACC, the switch fluorescence ratio is 1.02. Then CTAGTCGATA, with 1.01; and TAACCGAGCA, with 1.28; and GTTTGTCCTA, with 1. For GTCCGTTCAA the value was 1.24. For AGAGTAGTTC the value was 1.01; for CAACACATG, 1.02; for GCCGTGGGGA, 1.01.

On to CGACATTACA, for which the switch fluorescence ratio was found to be 1.34. On to GAACAGCGGG, for which the switch fluorescence ratio worked out at 0.965.

As for CATTGACTGT, the switch fluorescence ratio stood at 1.16. Then AGTAGTAGCC, with 1.02; and TATGCCAAGG, with 1.04. Then CCGCTCTGCG, with 1.02; and ATGATTTGAC, with 1.02; and TGCAGCCGG, with 1.06. Then GCGAGGGGAC, with 0.993; and CACGAAGCTG, with 1.13. As for CTGATGCATA, the switch fluorescence ratio amounted to 1.51. For TGGTAGAAGA the value was 1.05; for TAAAGCAACA, 1.03; for TTGCTATGCA, 1.01. Then GACGAAACAT, with 1.21; and GTCTTTCCAA, with 1. Consider TAAAGGGACG, for which the switch fluorescence ratio came out at 1.09. As for AGTATGCTC, the switch fluorescence ratio worked out at 1. CCGTACGATG: the switch fluorescence ratio turned out to be 1.15. For GCGAAAGCCT the value was 1.04; for TATCGTGGAC, 0.961; for GGCCTAGCCA, 0.995. Turning to ACCGAAGGCG, the switch fluorescence ratio was found to be 1.01. For CGAATTTCGA the value was 0.937. With GCGAATGGGG, the switch fluorescence ratio is 1.04. Consider GTCAGGTGAT, for which the switch fluorescence ratio turned out to be 1.75. For GGGGAGCTGC the value was 0.92; for GCGGAATTTT, 0.994. ATTGCATTAG: the switch fluorescence ratio was 1.05. For AAGGTGTG, the switch fluorescence ratio came out at 0.994. In the case of TAAAATGCAG, the switch fluorescence ratio came to 0.96. Then CCCGGATTTA, with 0.979; and TTGGCAGAAT, with 1.03. Then CACCGACGGA, with 1.1; and ACCAAGTCAG, with 1.07; and TATGTGGATC, with 0.997. With CACGTTTCGA, the switch fluorescence ratio was 0.972. TCACATGGAA: the switch fluorescence ratio came out at 1.04. On to GCTTAAGTAA, for which the switch fluorescence ratio worked out at 0.959. As to TGCGATGACA, the switch fluorescence ratio was determined as 0.991.

Take CGCGCAGCTA: the switch fluorescence ratio is 1.01.

Regarding AGTCCTCTAT, the switch fluorescence ratio came out at 0.984.

On to ACCTTAGGTT, for which the switch fluorescence ratio was found to be 1.03.

AGGATTTAA: the switch fluorescence ratio is 1.03. For TTTAGTCTTT the value was 0.992.
